Data: PubChem BioAssay AID651820 (National Center for Advancing Translational Sciences (NCATS), 2012)
The whole screen tested about 340,000 compounds, of which about 12,000 (3.5%) were called active. Inconclusive results, whose numbers are uncertain, are shown with a selection of clear calls. The call rests on the fitted dose curve; in most records, active means well fitted inhibition curve with a large enough effect; inconclusive means small, poorly fitted or top-dose-only effect, or another doubt; inactive means no such curve, though single readings can be large or run the other way. No potency is given beside an inconclusive call; the fits are too rough.

assay: qHTS Assay for Inhibitors of Hepatitis C Virus (HCV); conditions: Huh7.5.1 HCVcc-Cre (HCVcc is cell-culture hepatitis C virus) infection, luciferase reporter, 44 h; activity change, negative = inhibition: at 41.8 µM (top of the series)
In short: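 1,000 cells/well; 4 h culture; + compound; + HCVcc-Cre (~0.5 moi); 44 h; luciferase substrate, RT 15 min; read 15 sec.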
On the % scale 0 is the no-effect control and ±100 the full control effect; potency means the concentration at half of the fitted maximal effect; tags describe the fitted curve by direction and shape.

SMILES | Potency | activity change, negative = inhibition
COc1ccc(NC(=O)Nc2ccc3c(c2)C(=O)N([C@H](C)CO)C[C@H](C)[C@@H](CN(C)S(=O)(=O)c2ccccc2)O3)cc1 | inconclusive [inhibitor, single point] | –
CCOC(=O)Nc1ccc2c(c1)OCO2 | inconclusive [inhibitor, single point] | –
N#C/C(=N\Nc1cccc([N+](=O)[O-])c1)C(=O)c1ccc(Br)cc1 | active: 10 µM | –
CCN1CC(CN(C)Cc2nc(-c3ccc(OC)c4ccccc34)oc2C)CC1=O (centres undefined) | inconclusive [inhibitor, single point] | –
Cc1ccc2c(c1)NC(=O)c1cc([N+](=O)[O-])ccc1O2 | inconclusive [inhibitor, single point] | –
CCC(C)(C)c1ccc(OCCCC[n+]2cccc(C)c2C)c(C(C)(C)CC)c1 | active: 17.8 µM | –
CCCn1nc(NC(=O)C2CCCO2)c2cc3ccc(C)cc3nc21 (centres undefined) | inconclusive [inhibitor, single point] | –
O=C1CC[C@@]23CCCN2C(=O)CCCC3C1 (some centres undefined) | inconclusive [inhibitor, single point] | –
CC[N+](C)(C)Cc1ccccc1Br | – | inactive: -11.4% [at 8.37 µM]
CC(=O)c1cccc(NC(=O)c2ccccc2OCc2ccc(F)cc2)c1 | inconclusive [inhibitor, full curve] | –
COc1ccc2c(c1)OC[C@H]1[C@H]2N2C(=O)c3cc(OC)ccc3NC(=O)[C@@]2(C)[C@H]1c1ccccc1 | inconclusive [inhibitor, single point] | –
O=C(/C=C/c1ccc(Br)cc1)NC(=S)N1CCOCC1 | inactive | –
O=C(NCc1ccc2c(c1)OCO2)c1nn(-c2ccccc2)c(=O)c2ccccc12 | inconclusive [inhibitor, partial curve] | –
CCOC(=O)C1=C(C)N(c2ccccc2)C(=O)/C1=C\c1ccco1 | inconclusive [inhibitor, single point] | –
COc1ccc(S(=O)(=O)N2CCC(C)CC2)cc1N(C)S(=O)(=O)c1ccccc1 | inconclusive [inhibitor, single point] | –
CCOc1ccc(CNC(=O)CCCn2ccc3cc(S(=O)(=O)N4CCCC4)ccc32)cc1 | inconclusive [inhibitor, single point] | –
O=C1C(=O)N(CCS(=O)(=O)c2ccccc2)c2ccccc21 | inactive | –
COc1ccc(C(=O)C2CCCN(C(=O)C3=CCCC3)C2)c(C)c1 (centres undefined) | inconclusive [inhibitor, single point] | –
CCCCNC(=S)N1CCC(Cc2ccccc2)CC1 | inconclusive [inhibitor, single point] | –
CCOc1ncccc1C(=O)OCc1cc(=O)oc2c(C)c(C)ccc12 | inactive | –
Cc1ccc(C(=O)Nc2nc(-c3ccccc3)c(-c3ccccc3)o2)cc1 | inconclusive [inhibitor, single point] | –
CSc1nc(N)nc2c1ncn2CC(=O)N1CCN(Cc2c(C)cc(C)cc2C)CC1 | active: 1.41 µM | –
Cc1cc(OCc2cccc(S(=O)(=O)N3CCOCC3)c2)ccc1Cl | inconclusive [inhibitor, partial curve] | –

SMILES | Potency | activity change, negative = inhibition
C#CCOCCOCCOCCNc1nc(N2CCN(C(=O)C([C@@H](C)O)n3cc([C@@H](N)CCCCN)nn3)CC2)nc(N2CCN(C(=O)[C@H](CCC(=O)O)n3cc([C@@H](N)CCCCN)nn3)CC2)n1 (some centres undefined) | inconclusive [inhibitor, single point] | –
CCNc1nc(CC)nc2c1oc1ccccc12 | inactive | –
C/C(=N\O)c1cc(Cl)ccc1O | inconclusive [inhibitor, single point] | –
COc1cc(NC(=S)NC2CC(C)(C)NC(C)(C)C2)c(OC)cc1Cl | inconclusive [inhibitor, single point] | –
COc1cc(/C=C/C(=O)OCC(=O)Nc2c(C)n(C)n(-c3ccccc3)c2=O)cc(OC)c1OC | inactive | –
Cn1c(=O)c([N+](=O)[O-])c(-n2ccnc2)c2ccccc21 | inconclusive [inhibitor, single point] | –
c1coc(C2Nc3ccccc3-c3nc4ccccc4n32)c1 (centres undefined) | active: 12.6 µM | –
CC(C)c1ccc(S(=O)(=O)N2CCN(C(=O)C3CC3C)CC2)cc1 (centres undefined) | inconclusive [inhibitor, single point] | –
Cc1ccc(S(=O)(=O)N2CCC3(CC2)OCCN3S(=O)(=O)c2c(C)cc(C)cc2C)cc1 | active: 10 µM | –
O=S(=O)(c1cc(-c2nnc(-c3ccc(Br)cc3)o2)ccc1Br)N1CCCCCC1 | inconclusive [inhibitor, single point] | –
CN(CC(=O)NCc1ccc(F)cc1)S(=O)(=O)c1ccc2c(c1)c(=O)n(C)c(=O)n2C | inactive | –
COc1ccc(P2(=O)Nc3ccccc3N2)cc1 | inactive | –
Cc1ccc(Nc2ccc(NCc3ccccc3)nn2)cc1C | inconclusive [inhibitor, single point] | –
O=C(Cc1csc(N2CCOCC2)n1)N/N=C/c1ccc(Cl)cc1Cl | active: 11.2 µM | –
COc1cccc(Nc2nc(-c3sc(NC(=O)c4ccco4)nc3C)cs2)c1 | inconclusive [inhibitor, single point] | –
CCN(CC)CCN(C(=O)c1c(F)cccc1F)c1nc2cc(C)cc(C)c2s1 | active: 10 µM | –
Cc1ccc(S(=O)(=O)N2CCCC2CNC(=O)C(=O)Nc2ccc(F)cc2)cc1 (centres undefined) | inconclusive [inhibitor, partial curve] | –
[O-][n+]1c2ccccc2cc2ccccc21 | inconclusive [inhibitor, single point] | –
COc1ccc(CN(C)CC2CCCN(CCc3ccc(Cl)cc3)C2)cc1OC (centres undefined) | active: 10 µM | –
CC(C)NC(=NCc1ccc(Cl)cc1Cl)Nc1ccccc1 | inconclusive [inhibitor, single point] | –
COc1ccccc1C(=O)NCCC(=O)Nc1ccc(S(=O)(=O)N2CCC(C)CC2)cc1 | inconclusive [inhibitor, single point] | –
CCCC/C(C)=C/[C@@H](NP(=O)(c1ccccc1)c1ccccc1)c1ccccc1 | active: 2.82 µM | –
COc1cc(OC)cc(C(=O)N2CCN(C(=O)c3ccc(OC)c(OC)c3)CC2)c1 | inactive | –

SMILES | Potency | activity change, negative = inhibition
O=C(Cc1cccs1)NNC(=S)NCc1ccco1 | inactive | –
CC(=O)C(Sc1ncnc2c1nnn2-c1ccc(F)cc1)C(=O)N(C)C (centres undefined) | inactive | –
Cc1nn(C)c(Nc2ccc(Br)cc2)c1Br | active: 3.55 µM | –
COc1ccc(/C(O)=C/C(=O)C(=O)NNC(=O)c2ccccc2)cc1 | inactive | –
Clc1ccc(-c2nnc(CSc3nnc(-c4cccs4)n3Cc3ccccc3)o2)cc1 | inconclusive [inhibitor, full curve] | –
COc1ccc(CCNC(=O)C(=O)NCC2OCCN2S(=O)(=O)c2ccc(F)cc2)cc1 (centres undefined) | inactive | –
CCc1ccc(-c2cc(C)no2)cc1S(=O)(=O)N1CCN(c2ccc(C(C)=O)cc2)CC1 | active: 6.31 µM | –
CCOc1cc2c(cc1OCC)CN(C(=O)c1cccc(S(=O)(=O)N3CCCC3)c1)CC2 | active: 8.91 µM | –
COc1ccc(-n2nc(C(=O)c3cccs3)cc(-c3nc4ccccc4[nH]3)c2=N)cc1 | active: 11.2 µM | –
COc1ccccc1CNC(=O)CN1c2cccc3cccc(c23)S1(=O)=O | inconclusive [inhibitor, single point] | –
Cc1cc(O)ccc1Nc1nc(-c2cccs2)cs1 | inconclusive [inhibitor, partial curve, poor fit] | –
O=C(C[C@@H]1C/C=C\CC[C@H](Cc2ccc(F)cc2)C(=O)OC[C@@H]2CCCN2C1=O)N[C@H](CO)Cc1ccccc1 | inconclusive [inhibitor, single point] | –
Cc1cc(C(=O)CSc2nnc(-c3cccc(F)c3)n2N)c(C)n1Cc1ccc2c(c1)OCO2 | active: 12.6 µM | –
COC(=O)c1cn(CCOc2ccccc2F)c2ccccc12 | inconclusive [inhibitor, single point] | –
CCn1cc(C(=O)NCCN(C)C)c(=O)c2cc(F)c(N3CCN(C)CC3)cc21 | inactive | –
Cc1nc(CS(=O)c2ccc(Cl)cc2)cc(NCc2ccc(Cl)cc2Cl)n1 (centres undefined) | inconclusive [inhibitor, partial curve] | –
COc1ccccc1Nc1nc2c(C)cccc2cc1C#N | inconclusive [inhibitor, partial curve] | –
Cc1cc(C)nc(N2CCCC(C(=O)Nc3nnc(C(C)(C)C)s3)C2)n1 (centres undefined) | inconclusive [inhibitor, single point] | –
COc1ccc([C@H]2/C=C\CN(S(=O)(=O)c3ccc(C)cc3)[C@@H](C)C(=O)N2Cc2ccc(F)cc2)cc1 | inconclusive [inhibitor, single point] | –
COc1ccc2[nH]c(C)c(CCNC(=S)Nc3ccccc3OC)c2c1 | inconclusive [inhibitor, single point] | –
Cc1ccc(NC(=O)Cc2c[nH]c3ccccc23)cc1S(=O)(=O)N1CCCCCC1 | inactive | –
CCCn1c(=N)c(S(=O)(=O)c2ccccc2)cc2c(=O)n3cccc(C)c3nc21 | inconclusive [inhibitor, full curve] | –
CN(C(=O)CCCN1C(=O)c2cccc3cccc(c23)C1=O)c1ccccc1 | inconclusive [inhibitor, single point] | –
